Measured values taken from patent publication USRE50631E1, “ROR1 antibody immunoconjugates” (VelosBio Inc., priority 2017, dated 2025).
Several values for one entry are separate records, joined by “and”; a condition that tells them apart may be missing. Equal values may be shown once. Entries after “also recorded” stand apart in the source; their conditions may differ. Read-outs that look alike come from different tables or passages of the source.

What was measured:
[1] = system: MCF-7; assay: Cytotoxicity in vitro (CellTiter-Glo viability), MCF-7; assay type: cell-based, human; conditions: MCF-7 (ER+/PR+/HER2− Breast), 72 hours
[2] = system: MDA-MB-231 xenograft; assay: MDA-MB-231 human TNBC mammary fat pad xenograft model; assay type: in vivo, mouse; conditions: 47 days
Description: NCR mice were subcutaneously injected in the mammary fat pad with MDA-MB-231 cells (ROR1-positive human triple negative breast cancer (TNBC) cells) in a cell suspension in matrigel. When palpable tumors were observed (at approximately 250 mm^3), the animals were randomized into three different groups, 9 mice/group: vehicle control, 1 mg/kg ADC-A IV qw, and 5 mg/kg ADC-A IV qw. The mice received 5 total treatments and tumors were harvested 24 h after the last treatment. Mean tumor growth inhibition (TGI) was calculated utilizing the above formula.

[3] = system: A4573; assay: Cytotoxicity in vitro (CellTiter-Glo viability), A4573; assay type: cell-based, human; conditions: A4573 (EWS), 72 hours
[4] = system: H460; assay: Cytotoxicity in vitro (CellTiter-Glo viability), H460; assay type: cell-based, human; conditions: H460 (NSCLC), 72 hours
[5] = system: Jeko-1; assay: Cytotoxicity in vitro (CellTiter-Glo viability), Jeko-1; assay type: cell-based, human; conditions: Jeko-1 (MCL), read-out: EC50 (nM), cytotoxicity in vitro
[6] = system: L363; assay: Cytotoxicity in vitro (CellTiter-Glo viability), L363; assay type: cell-based, human; conditions: L363 (MM), 72 hours
[7] = system: ROR1×TCL1 leukemia cells; assay: TCL1×ROR1 CLL mouse model; assay type: in vivo; conditions: 1, 2, and 5 mg/kg IV weekly, four doses
Description: This study evaluated the activity of ADC-A as compared to vehicle and unconjugated Ab1 in the TCL1×ROR1 CLL mouse model. In the study, ROR1×TCL1 leukemia cells were engrafted into mice via tail vein injection, and the injected mice were randomized into five groups, 8 mice/group. The groups were vehicle control, 10 mg/kg Ab1, and 1, 2, and 5 mg/kg ADC-A. The mice were dosed IV weekly for a total of four doses.

[8] = system: U2OS; assay type: cell-based, human; conditions: U2OS (OS), 72 hours; read-out: EC50 (nM), cytotoxicity in vitro
[9] = system: SKES; assay: Cytotoxicity in vitro (CellTiter-Glo viability), SKES; assay type: cell-based, human; conditions: SKES (EWS), 72 hours
[10] = system: H1975; assay: Cytotoxicity in vitro (CellTiter-Glo viability), H1975; assay type: cell-based, human; conditions: H1975 (NSCLC), 72 hours
[11] = system: BR5011; assay: Human TNBC PDX model BR5011; assay type: in vivo, mouse
Text: Two PDX models displaying different levels of ROR1 expression were selected for this study. ROR1 expression was based on the level of ROR1 staining via IHC of a tissue microarray representing triplicate cores of TNBC PDX models. The mean level of ROR1 expression as assessed by % ROR1-positive cells were 58% and 38% for human TNBC cells BR5011 and BR5015, respectively.
NOD/SCID nude mice were subcutaneously injected with BR5011 or BR5015 cells in the mammary fat pad. When palpable tumors were observed (mean tumor volume approximately 150 mm^3 for BR5011 and approximately 250 mm^3 for BR5015), animals were randomized into three groups. The groups for the BR5011 PDX model were vehicle control, 1 mg/kg ADC-A IV q4d, and 5 mg/kg ADC-A IV q4d. The groups for the BR5015 PDX model were vehicle control, 1 mg/kg ADC-A IV qw, and 5 mg/kg ADC-A IV qw. Mean TGI was calculated as described above.

[12] = system: Ramos; assay: Cytotoxicity in vitro (CellTiter-Glo viability), Ramos; assay type: cell-based, human; conditions: Ramos (Burkitt's), 72 hours
[13] = system: Jeko-1 MCL xenograft; assay: Jeko-1 human MCL xenograft model (study 7); assay type: in vivo, mouse; conditions: 1 mg/kg ADC-N, ADC-P, ADC-R; 5 mg/kg ADC-A, ADC-L, ADC-M, ADC-S, ADC-T; IV Q4D
Description: Jeko-1 (MCL) cells were engrafted subcutaneously into mice. When tumor size reached 100 mm^3, the mice were randomized into nine groups, 9 mice/group. The groups were vehicle control; 1 mg/kg ADC-N, ADC-P or ADC-R; or 5 mg/kg ADC-A, ADC-L, ADC-M, ADC-S, or ADC-T. The mice were dosed IV q4d.

[14] = system: HOS; assay: Cytotoxicity in vitro (CellTiter-Glo viability), HOS; assay type: cell-based, human; conditions: HOS (OS), 72 hours

B1: ADC-A: Ab1 conjugated via MAL (mc)-VC-PAB linker to MMAE (conjugate)
heavy: QVQLQESGPGLVKPSQTLSLTCTVSGYAFTAYNIHWVRQAPGQGLEWMGSFDPYDGGSSYNQKFKDRLTISKDTSKNQVVLTMTNMDPVDTATYYCARGWYYFDYWGHGTLVTVSS[skipping human IgG1 constant region]
light: DIVMTQTPLSLPVTPGEPASISCRASKSISKYLAWYQQKPGQAPRLLIYSGSTLQSGIPPRFSGSGYGTDFTLTINNIESEDAAYYFCQQHDESPYTFGEGTKVEIKRTVAAPSVFIFPPSDEQLKSGTASVVCLLNNFYPREAKVQWKVDNALQSGNSQESVTEQDSKDSTYSLSSTLTLSKADYEKHKVYACEVTHQGLSSPVTKSFNRGEC
In the case of B1, the EC50 [1] is reported as 289 nM, the “mean TGI” value ([2]; 1 mg/kg IV qw) is reported as 56.4% at 1 mg/kg; and the “mean TGI” value ([2]; 5 mg/kg IV qw) is reported as 94.2% at 5 mg/kg. The EC50 [3] was 15.3 nM, the EC50 [4] was 61.5 nM and the EC50 ([5]; 72 hours) was 187 nM. The EC50 ([5]; 96 hours (values marked *)) was 22.4 nM and 40.4 nM, the EC50 [6] was 244 nM and the “leukemic cell tumor burden” value [7] was “dose-dependent inhibition of leukemic cell tumor burden”. For the same molecule, the EC50 [8] was 223 nM, the EC50 [9] was 15.3 nM and the EC50 [10] was 9.7 nM. The “mean TGI” value ([11]; 1 mg/kg IV q4d) was 40.1% at 1 mg/kg,, the “mean TGI / tumor response” value ([11]; 5 mg/kg IV q4d, 58% of intra-tumoral cells ROR1-positive) was “complete and sustained regressions were observed in all tumors; also recorded: complete regression at 5 mg/kg” and the EC50 [12] was 650 nM. The “tumor growth / average tumor size (interim results, day 14)” value [13] was “Significant tumor regression” and the EC50 [14] was 126 nM and 148 nM.
